This is one part of the list.
What was measured:
Experiment in all cases: glycan array binding signal (z-score within array); higher = stronger binding
Conditions in all cases: glycan notation: IUPAC condensed, linker removed
[1] = target: Gal(b1-4)GlcNAc(a1-6)Gal(b1-4)GlcNAc
In short: (§1)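 Glycan array data came from 3228 arrays in the Consortium for Functional Glycomics database, and only arrays with an available protein sequence were kept. Glycan names were put into IUPAC-condensed notation, and columns mapping to the same glycan were averaged. The binding signal is a within-array Z-score, averaged across arrays of one protein sequence run at different concentrations or buffers and across linkers. A negative Z-score can be read as non-binding.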

[2] = target: Gal(b1-4)GlcNAc(b1-2)Man(a1-3)Man(b1-4)GlcNAc(b1-4)GlcNAc
In short: as §1

[3] = target: Gal(b1-4)GlcNAc(b1-2)Man(a1-3)[Gal(b1-4)GlcNAc(b1-2)Man(a1-6)]Man(b1-4)GlcNAc(b1-4)GlcNAc
In short: as §1

[4] = target: Gal(b1-4)GlcNAc(b1-2)Man(a1-3)[Gal(b1-4)GlcNAc(b1-2)Man(a1-6)]Man(b1-4)GlcNAc(b1-4)[Fuc(a1-6)]GlcNAc
In short: as §1

[5] = target: Gal(b1-4)GlcNAc(b1-2)Man(a1-3)[Man(a1-6)]Man(b1-4)GlcNAc(b1-4)GlcNAc
In short: as §1

[6] = target: Gal(b1-4)GlcNAc(b1-2)Man(a1-6)Man(b1-4)GlcNAc(b1-4)GlcNAc
In short: as §1

[7] = target: Gal(b1-4)GlcNAc(b1-2)Man(a1-6)[Man(a1-3)]Man(b1-4)GlcNAc(b1-4)GlcNAc
In short: as §1

[8] = target: Gal(b1-4)GlcNAc(b1-2)[Gal(b1-4)GlcNAc(b1-4)]Man(a1-3)[Gal(b1-4)GlcNAc(b1-2)Man(a1-6)]Man(b1-4)GlcNAc(b1-4)GlcNAc
In short: as §1

[9] = target: Gal(b1-4)GlcNAc(b1-3)Gal(b1-3)GlcNAc
In short: as §1

[10] = target: Gal(b1-4)GlcNAc(b1-3)Gal(b1-4)Glc
In short: as §1

[11] = target: Gal(b1-4)GlcNAc(b1-3)Gal(b1-4)GlcNAc
In short: as §1

[12] = target: Gal(b1-4)GlcNAc(b1-3)Gal(b1-4)GlcNAc(b1-3)Gal(b1-4)GlcNAc
In short: as §1

[13] = target: Gal(b1-4)GlcNAc(b1-3)Gal(b1-4)[Fuc(a1-3)]GlcNAc(b1-3)Gal(b1-4)[Fuc(a1-3)]GlcNAc
In short: as §1

[14] = target: Gal(b1-4)GlcNAc(b1-3)GalNAc
In short: as §1

[15] = target: Gal(b1-4)GlcNAc(b1-3)[Gal(b1-4)GlcNAc(b1-6)]Gal(b1-4)GlcNAc
In short: as §1

[16] = target: Gal(b1-4)GlcNAc(b1-3)[GlcNAc(b1-6)]Gal(b1-4)GlcNAc
In short: as §1

[17] = target: Gal(b1-4)GlcNAc(b1-6)Gal(b1-4)GlcNAc
In short: as §1

[18] = target: Gal(b1-4)GlcNAc(b1-6)Gal(b1-4)GlcNAc(b1-6)GalNAc
In short: as §1

[19] = target: Gal(b1-4)GlcNAc(b1-6)GalNAc
In short: as §1

[20] = target: Gal(b1-4)GlcNAc(b1-6)[Gal(b1-3)]GalNAc
In short: as §1

Gal3S(b1-3)GalNAc = target: Gal3S(b1-3)GalNAc
In short: as §1

Gal3S(b1-3)GlcNAc = target: Gal3S(b1-3)GlcNAc
In short: as §1

[21] = target: Gal3S(b1-3)[Fuc(a1-4)]GlcNAc
In short: as §1

Gal3S(b1-4)Glc = target: Gal3S(b1-4)Glc
In short: as §1

Gal3S(b1-4)Glc6S = target: Gal3S(b1-4)Glc6S
In short: as §1

Gal3S(b1-4)GlcNAc = target: Gal3S(b1-4)GlcNAc
In short: as §1

Gal3S(b1-4)GlcNAc6S = target: Gal3S(b1-4)GlcNAc6S
In short: as §1

[22] = target: Gal3S(b1-4)[Fuc(a1-3)]Glc
In short: as §1

Gal3S4S(b1-4)GlcNAc = target: Gal3S4S(b1-4)GlcNAc
In short: as §1

Gal3S6S(b1-4)GlcNAc = target: Gal3S6S(b1-4)GlcNAc
In short: as §1

Gal3S6S(b1-4)GlcNAc6S = target: Gal3S6S(b1-4)GlcNAc6S
In short: as §1

Gal4S(b1-4)GlcNAc = target: Gal4S(b1-4)GlcNAc
In short: as §1

Gal4S6S(b1-4)GlcNAc = target: Gal4S6S(b1-4)GlcNAc
In short: as §1

Gal6S(b1-4)Glc = target: Gal6S(b1-4)Glc
In short: as §1

Gal6S(b1-4)Glc6S = target: Gal6S(b1-4)Glc6S
In short: as §1

Gal6S(b1-4)GlcNAc = target: Gal6S(b1-4)GlcNAc
In short: as §1

Gal6S(b1-4)GlcNAc6S = target: Gal6S(b1-4)GlcNAc6S
In short: as §1

B1: HHL-1 (Homo sapiens), P07306 (protein)
chain: TKEYQDLQHLDNEESDHHQLRKGPPPPQPLLQRLCSGPRLLLLSLGLSLLLLVVVCVIGSQNSQLQEELRGLRETFSNFTASTEAQVKGLSTQGGNVGRKMKSLESQLEKQQKDLSEDHSSLLLHVKQFVSDLRSLSCQMAALQGNGSERTCCPVNWVEHERSCYWFSRSGKAWADADNYCRLEDAHLVVVTSWEEQKFVQHHIGPVNTWMGLHDQNGPWKWVDGTDYETGFKNWRPEQPDDWYGHGLGGGEDCAHFTDDGRWNDDVCQRPYRWVCETELDKASQEPPLL
- glycan array binding signal (z-score) [1]: 0.064
- glycan array binding signal (z-score) [2]: -0.358
- glycan array binding signal (z-score) [3]: -0.525
- glycan array binding signal (z-score) [4]: -0.551
- glycan array binding signal (z-score) [5]: -0.541
- glycan array binding signal (z-score) [6]: -0.544
- glycan array binding signal (z-score) [7]: 0.739
- glycan array binding signal (z-score) [8]: -0.183
- glycan array binding signal (z-score) [9]: -0.519
- glycan array binding signal (z-score) [10]: 0.621
- glycan array binding signal (z-score) [11]: -0.545
- glycan array binding signal (z-score) [12]: -0.523
- glycan array binding signal (z-score) [13]: -0.333
- glycan array binding signal (z-score) [14]: -0.137
- glycan array binding signal (z-score) [15]: -0.034
- glycan array binding signal (z-score) [16]: -0.525
- glycan array binding signal (z-score) [17]: 0.036
- glycan array binding signal (z-score) [18]: 0.262
- glycan array binding signal (z-score) [19]: 4.51
- glycan array binding signal (z-score) [20]: 0.32
- glycan array binding signal (z-score) (Gal3S(b1-3)GalNAc): -0.458
- glycan array binding signal (z-score) (Gal3S(b1-3)GlcNAc): 0.228
- glycan array binding signal (z-score) [21]: -0.127
- glycan array binding signal (z-score) (Gal3S(b1-4)Glc): -0.411
- glycan array binding signal (z-score) (Gal3S(b1-4)Glc6S): 0.046
- glycan array binding signal (z-score) (Gal3S(b1-4)GlcNAc): -0.226
- glycan array binding signal (z-score) (Gal3S(b1-4)GlcNAc6S): -0.129
- glycan array binding signal (z-score) [22]: 1.04
- glycan array binding signal (z-score) (Gal3S4S(b1-4)GlcNAc): -0.434
- glycan array binding signal (z-score) (Gal3S6S(b1-4)GlcNAc): -0.557
- glycan array binding signal (z-score) (Gal3S6S(b1-4)GlcNAc6S): 0.503
- glycan array binding signal (z-score) (Gal4S(b1-4)GlcNAc): -0.443
- glycan array binding signal (z-score) (Gal4S6S(b1-4)GlcNAc): 0.319
- glycan array binding signal (z-score) (Gal6S(b1-4)Glc): -0.241
- glycan array binding signal (z-score) (Gal6S(b1-4)Glc6S): 0.876
- glycan array binding signal (z-score) (Gal6S(b1-4)GlcNAc): -0.536
- glycan array binding signal (z-score) (Gal6S(b1-4)GlcNAc6S): 0.389

From the supplement of paper PMC8728848
